According to PubChem BioAssay AID504832 (National Center for Advancing Translational Sciences (NCATS), 2011):
The whole screen tested about 310,000 compounds, of which about 18,000 (5.8%) were called active. The shares of active, inactive and inconclusive entries below differ from those in the screen. The call rests on the fitted dose curve; in most records, active means well fitted inhibition curve with a large enough effect; inconclusive means small, poorly fitted or top-dose-only effect, or another doubt; inactive means no such curve, though single readings can be large or run the other way. Potencies of inconclusive entries are left out as doubtful fits. Non-standard residues stand in square brackets, D forms with d. Residues, ends and D or L forms follow the SMILES beside them. *: point of attachment. Hyp = O=C(O)[CH]1C[CH](O)CN1; Cbz = O=C(OCc1ccccc1)*; OBn = c1ccc(CO*)cc1

Assay: Primary qHTS for delayed death inhibitors of the malarial parasite plastid, 48 hour incubation
Settings: P. falciparum luciferase growth in erythrocytes; series mostly up to 28.7 µM; activity change, negative = inhibition: at the top concentration
How it was run: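 A one-generation exposure of luciferase-tagged malaria parasites in RPMI 1640/Albumax erythrocyte culture, 37 C and 5% CO2. Inhibition is inferred from decreased luminescence after adding detection reagent.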
On the % scale 0 is the no-effect control and ±100 the full control effect; potency means the concentration at half of the fitted maximal effect; tags describe the fitted curve by direction and shape.

Compound | Potency | activity change, negative = inhibition
CC1CCCC(C)N1CC(O)COc1c(F)cc(Br)cc1F (stereo not given) | active: 10.4 µM | –
Cc1c(N=C2SCC(=O)N2/N=C/c2ccccc2)c(=O)n(-c2ccccc2)n1C | – | inactive: 13.8%
Cc1ccc2cccnc2c1NC(=S)NC(=O)c1ccccc1 | inconclusive [inhibitor, single point] | –
Cc1ccc(N=c2c([N+](=O)[O-])nn(-c3ccc4c(c3)OCCO4)n2O)c(Cl)c1 | – | inactive: 163%
Cc1ccc(S(=O)(=O)N2CCCCC2CCNC(=O)C(=O)NCc2ccco2)cc1 (stereo not given) | inconclusive [inhibitor, single point] | –
O=C(CN1CCN(C(=O)C2CC2)CC1)Nc1ccc(Cl)cc1F | inconclusive [inhibitor, partial curve] | –
NC(=S)N=Nc1c(O)n(Cc2ccc(F)cc2)c2ccccc12 | inconclusive [inhibitor, single point] | –
CCOC(=O)C1CCCN(C(=O)CSc2ccc(NC(C)=O)cc2)C1 (stereo not given) | – | inactive: 5.07%
OCC1(Cc2ccccc2)CCN(Cc2ccc(C(F)(F)F)cc2)CC1 | inconclusive [inhibitor, partial curve, poor fit] | –
Cc1nnn(C23CC4CC(CC(CC(=O)Nc5ccc(C)c(C)c5)(C4)C2)C3)n1 | inconclusive [inhibitor, partial curve, poor fit] | –
O=C(CSc1nnc(-c2cccnc2)o1)Nc1ccccc1Br | – | inactive: 85.6%
O=C(NCC(=O)N1CC(O)CC1C(=O)N1CCCC1C(=O)OCc1ccccc1)OCc1ccccc1 (stereo not drawn) (Cbz-Gly-[Hyp]-Pro-OBn; configuration not given here) | – | inactive: 48.3%
O=C(O)CCn1c(CO)nc2ccccc21 | – | inactive: 7.65%
Cc1ccccc1C(=O)c1c[nH]c(C(=O)N2CCN(c3ccccc3F)CC2)c1 | inconclusive [inhibitor, partial curve] | –
CCn1c(COc2ccc(Cl)c(C)c2)nnc1SCC(=O)N1CCCC1 | inconclusive [inhibitor, partial curve, poor fit] | –
c1ccc(SCc2cn(C[C@H]3CC[C@@H]([C@@H]4CC[C@H](Cn5cc(CSc6ccccc6)nn5)O4)O3)nn2)cc1 | – | inactive: -15.4%
CCCCCCn1c(=O)c(C(=O)Nc2cccc(C)n2)c(O)c2ccccc21 | inconclusive [inhibitor, single point] | –
CC1CCN(S(=O)(=O)c2cc([N+](=O)[O-])ccc2Cl)CC1 | – | inactive: -13.9%
O=C(CSc1ccc(-c2nc3ccccc3[nH]2)cn1)Nc1ccc(S(=O)(=O)N2CCCC2)cc1 | inconclusive [inhibitor, single point] | –
Cc1ccc(N(CC(O)CN2CCCC2)S(=O)(=O)c2ccccc2)cc1 (stereo not given) | inconclusive [inhibitor, single point] | –
Cc1cc2ncn(S(=O)(=O)c3ccc(F)cc3)c2cc1C | – | inactive: -15.4%
CC(C)(C)c1ccc(C2(C)NC(=O)N(CC(=O)NCc3cccs3)C2=O)cc1 (stereo not given) | inconclusive [inhibitor, single point] | –
Cc1ccc(C(=O)CC(SCC(=O)O)c2ccc([N+](=O)[O-])cc2)cc1 (stereo not given) | – | inactive: -14.2%

Compound | Potency | activity change, negative = inhibition
O=C(Cn1nc(-c2ccccc2Cl)ccc1=O)Nc1ccc(Br)cc1 | – | inactive: 2.4%
C[C@@H]1C[C@@H]([C@H](O)CC2CC(=O)NC(=O)C2)C(=O)[C@@H](C)C1 | active: 0.104 µM | –
O=c1cc(N2CCCCC2)c(-c2ccccc2)nn1Cc1ccc(F)cc1 | inconclusive [inhibitor, partial curve] | –
COc1ccc(N(CC(=O)N/N=C/c2ccc3c(c2)OCO3)S(=O)(=O)c2ccc(NC(C)=O)cc2)cc1 | active: 13.1 µM | –
O=C(COc1cc2oc(=O)cc(-c3ccccc3)c2cc1Cl)NC(Cc1c[nH]c2ccc(O)cc12)C(=O)O (stereo not given) | – | inactive: 49.9%
CCn1c(COc2ccccc2)nnc1SCC(=O)C(C)(C)C | active: 11.7 µM | –
Cc1ccc(OCc2cc(C(=O)N(C)CCc3ccccn3)no2)cc1C | inconclusive [inhibitor, single point] | –
CCOc1cc(C2C(C#N)=C(N)OC(C)=C2C(C)=O)c(Br)c(Br)c1OC(C)C (stereo not given) | active: 3.29 µM | –
Cc1cc(C)c(OCC(=O)NCC2COc3ccccc3O2)c(C)c1 (stereo not given) | inconclusive [inhibitor, partial curve, poor fit] | –
Cc1c(CCOC(=O)C23CC4CC(CC(C4)C2)C3)sc[n+]1Cc1ccccc1 | active: 3.29 µM | –
Cn1c(=O)n(CCc2ccccc2)c(=O)c2c1ncn2Cc1ccccc1 | inconclusive [inhibitor, single point] | –
CCOC(=O)CNC(=S)n1ncnc1N | – | inactive: 18.7%
CCCCOc1ccc(-c2nnc(-c3cc[n+](C)cc3)o2)cc1 | active: 0.415 µM | –
O=C(CNC(=O)c1ccccc1)OC(C(=O)c1ccccc1)c1ccccc1 (stereo not given) | – | inactive: 2.91%
O=C(NC1CC2CCC(C1)N2C(=O)NC1CCCCC1)NC12CC3CC(CC(C3)C1)C2 (stereo not given) | inconclusive [inhibitor, partial curve, poor fit] | –
CN(CCOc1ccccc1)C(=O)C1CCN(C(=O)c2ccc(Cl)cc2)CC1 | inconclusive [inhibitor, partial curve, poor fit] | –
Cc1ccc(-c2nc(N)sc2CC(=O)OCC(=O)N2C(C)CCCC2C)cc1 (stereo not given) | inconclusive [inhibitor, single point] | –
Cc1nn(-c2ccccc2)c(Cl)c1/C=N/NC(=O)CCNc1n[nH]c(=O)[nH]c1=O | – | inactive: -18.8%
COc1ccc2nc3oc(C(=O)NCc4cccs4)cc3cc2c1 | inconclusive [inhibitor, full curve, poor fit] | –
COc1ccccc1NC(=O)Nc1ccc(-n2ccc(C(F)(F)F)n2)cc1 | inconclusive [inhibitor, partial curve, poor fit] | –
COc1ccc(C(=O)Nc2nc3ccccc3s2)c(OC)c1 | inconclusive [inhibitor, full curve, poor fit] | –
Oc1c(C=C2N=c3ccccc3=N2)sc(=S)n1C1CCCC1 | – | inactive: 17%
